About 5,700 (2.6%) of roughly 220,000 compounds were called active. This list was built around the results that the source calls inconclusive (neither active nor inactive); the mix of calls is not that of the screen. Calls come from the whole dose curve; as a rule, active = well fitted inhibition curve with a large enough effect; inconclusive = small, poorly fitted or top-dose-only effect; inactive = no such curve, though single readings can be large or run the other way. A potency beside an inconclusive call is a rough fit, not a confirmed value.
target: Lysine-specific demethylase 5B (Homo sapiens) (UniProt Q9UGL1); assay: Primary screen for KDM5B Histone Demethylases FDH-coupled qHTS; details: FDH-coupled NADH fluorescence (FDH is formaldehyde dehydrogenase); activity change, negative = inhibition: at 57.7 µM (top of the series) unless noted; note: nearly all actives have a fitted effect of over 70% in size; for activity change, negative = inhibition: 0% is about no effect
Method in brief: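 KDM5BΔAP (200 nM final) in 50 mM HEPES pH 7.5, 0.01% Tween-20 was preincubated 10 min at RT with compound over a concentration range. Substrate mix (H3K4me3 12.5 µM, α-KG 25 µM, Fe²⁺, ascorbate, NAD⁺, FDH) was added, and NADH fluorescence change over 30 min gave dose-response curves.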
Potency is the fitted concentration of half-maximal effect; tags give direction and shape of the fitted curve.

UniProt Q9UGL1, sequence (Q9UGL1 whole entry, looked up): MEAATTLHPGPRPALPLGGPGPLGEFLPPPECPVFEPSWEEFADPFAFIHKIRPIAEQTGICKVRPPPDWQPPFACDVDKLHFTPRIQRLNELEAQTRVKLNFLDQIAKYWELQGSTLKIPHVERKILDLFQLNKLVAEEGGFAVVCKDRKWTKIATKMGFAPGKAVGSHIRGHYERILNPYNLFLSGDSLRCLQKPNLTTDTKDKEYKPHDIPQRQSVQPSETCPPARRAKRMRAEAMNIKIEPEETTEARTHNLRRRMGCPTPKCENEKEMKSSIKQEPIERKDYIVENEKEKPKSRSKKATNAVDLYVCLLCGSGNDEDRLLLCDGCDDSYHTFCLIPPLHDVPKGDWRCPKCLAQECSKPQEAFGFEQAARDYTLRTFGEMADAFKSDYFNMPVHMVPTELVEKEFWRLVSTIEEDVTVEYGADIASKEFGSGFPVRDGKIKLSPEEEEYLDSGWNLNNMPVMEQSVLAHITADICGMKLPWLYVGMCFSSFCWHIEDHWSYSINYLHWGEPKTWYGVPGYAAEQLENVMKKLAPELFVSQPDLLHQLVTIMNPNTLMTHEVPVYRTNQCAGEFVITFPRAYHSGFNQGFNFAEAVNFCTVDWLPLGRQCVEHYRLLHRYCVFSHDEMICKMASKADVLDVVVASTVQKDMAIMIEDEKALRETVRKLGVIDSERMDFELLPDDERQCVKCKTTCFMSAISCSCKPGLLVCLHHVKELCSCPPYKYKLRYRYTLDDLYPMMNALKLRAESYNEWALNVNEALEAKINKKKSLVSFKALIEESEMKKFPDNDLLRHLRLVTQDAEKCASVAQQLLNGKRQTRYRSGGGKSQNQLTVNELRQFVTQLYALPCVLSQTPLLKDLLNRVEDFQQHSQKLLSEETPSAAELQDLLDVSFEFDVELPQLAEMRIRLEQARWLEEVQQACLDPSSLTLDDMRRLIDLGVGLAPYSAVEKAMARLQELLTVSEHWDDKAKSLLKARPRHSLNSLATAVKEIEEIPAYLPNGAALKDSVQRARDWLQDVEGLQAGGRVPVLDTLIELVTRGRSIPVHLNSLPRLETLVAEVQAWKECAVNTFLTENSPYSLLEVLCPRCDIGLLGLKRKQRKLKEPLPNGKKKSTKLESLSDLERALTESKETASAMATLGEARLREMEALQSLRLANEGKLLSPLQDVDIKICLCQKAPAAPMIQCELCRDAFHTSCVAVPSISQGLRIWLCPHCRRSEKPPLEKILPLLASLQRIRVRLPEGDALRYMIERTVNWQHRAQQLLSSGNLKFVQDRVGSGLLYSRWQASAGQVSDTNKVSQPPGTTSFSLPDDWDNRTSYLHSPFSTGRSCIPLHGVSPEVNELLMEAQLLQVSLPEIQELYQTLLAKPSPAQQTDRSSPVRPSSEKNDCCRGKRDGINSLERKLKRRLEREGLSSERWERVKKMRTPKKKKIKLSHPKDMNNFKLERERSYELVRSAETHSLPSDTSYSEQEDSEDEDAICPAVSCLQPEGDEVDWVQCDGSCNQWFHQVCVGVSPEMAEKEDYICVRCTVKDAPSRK

SMILES | Potency | activity change, negative = inhibition
Cc1cc2c(-c3ccccc3O)nc(-c3c(C)noc3C)cc2[nH]1 | active: 35.5 µM | –
COC(=O)[C@@H]1Cc2ncn(C)c2CN1S(=O)(=O)c1cccc(C(F)(F)F)c1 | inconclusive: 39.8 µM [inhibitor, partial curve, poor fit] | –
COc1ccc(CCNC(=O)C2CCN(c3nc(Cl)nc4nc[nH]c34)CC2)cc1OC | inconclusive: 28.2 µM [inhibitor, partial curve, poor fit] | –
COc1ccccc1-c1cc(C(=O)NCc2c(C)cc(C)[nH]c2=O)c2c(c1)ncn2C | inconclusive: 39.8 µM [inhibitor, partial curve, poor fit] | –
O=C(c1ccccn1)N1CC2CC(C1)[C@H]1CCCC(=O)N1C2 (some centres not stated) | – | inactive: -4.19%
CCOc1cc(CNC(=O)c2ncoc2-c2ccc(C)s2)cc(OCC)c1OCC | inconclusive: 14.1 µM [inhibitor, partial curve, poor fit] | –
N=C(N)c1ccc(OCc2cccnc2)cc1 | inconclusive: 4.47 µM [inhibitor, full curve, poor fit] | –
Cc1oc(-c2nc(C#N)c(N3CCN(c4ccccc4)CC3)o2)cc1S(=O)(=O)N(C)C | inconclusive: 39.8 µM [inhibitor, single point] | –
c1ccc2cc(Nc3ccc4ccccc4c3)ccc2c1 | inconclusive: 39.8 µM [inhibitor, partial curve, poor fit] | –
COc1ccc(-c2c(C#N)c(SCC(=O)Nc3cccc(Cl)c3)nc(C)c2C(=O)Nc2ccccc2)cc1OC | inconclusive: 25.1 µM [inhibitor, partial curve, poor fit] | –
Cn1c2ccccc2c2ncn(Cc3ccc(F)cc3)c(=O)c21 | inconclusive: 31.6 µM [inhibitor, partial curve, poor fit] | –
Cc1cc2oc(C(=O)N3CCOC34CCN(C)CC4)cc(=O)c2cc1C | – | inactive: -8.8%
CCc1ccccc1NC(=O)Cn1c(=O)n(Cc2ccco2)c(=O)c2ccccc21 | inconclusive: 2 µM [inhibitor, partial curve, poor fit] | –
COc1ccc(-c2ccc3c(c2)C(=O)N2CC[C@H](NC(=O)CCC(=O)O)[C@H]2C(=O)N3)cc1 | active: 20 µM | –
O=C(NCc1ccc(Cl)cc1)c1cc2c(s1)-c1ccccc1SC2 | inconclusive: 35.5 µM [inhibitor, partial curve, poor fit] | –
COc1ccccc1-c1nc2cnccn2c1NCCC(=O)Nc1ccc(C)cc1C | inconclusive: 25.1 µM [inhibitor, partial curve, poor fit] | –
COc1ccc(-c2nc3c(c(SCC(=O)Nc4cccc(O)c4)n2)Cc2c(CO)cnc(C)c2O3)cc1 | inconclusive: 15.8 µM [inhibitor, partial curve, poor fit] | –
